Consider 86 sequences from the supplement of paper PMC4166925.

± gives the standard deviation of the averaged measurements. Whole data set: some 33,000 sequences, median “E-score (dimensionless, -0.5 to 0.5)” near -0.046, cut for the highest 2% near 0.36. The list shows a part of the results.
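Further: protein at 200 nM in PBS on universal double-stranded arrays.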

The test system of the experiment is T1, SpTbr T-box DNA-binding domain (GST fusion).
T1 sequence: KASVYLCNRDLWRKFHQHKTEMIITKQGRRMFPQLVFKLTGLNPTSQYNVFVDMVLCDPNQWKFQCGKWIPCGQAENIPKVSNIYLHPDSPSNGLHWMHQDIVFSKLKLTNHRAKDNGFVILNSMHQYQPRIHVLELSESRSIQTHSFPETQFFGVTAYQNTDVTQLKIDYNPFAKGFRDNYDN
The experiment in a line: PBM E-score of 8-mer (E-score (dimensionless, -0.5 to 0.5)); Tbr is Tbrain of the sea star Patiria miniata (Pm) or the sea urchin Strongylocentrotus purpuratus (Sp); higher = stronger binding preference; most listed sequences are background and not binding sites. Conditions: the construct has about 5 more residues each side. How it is done:
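Universal protein-binding microarray (Agilent AMADID 016060, 60-bp probes with a 35-bp variable region) incubated with 200 nM GST-fused Strongylocentrotus purpuratus Tbr T-box DNA-binding domain (residues 362-554) in PBS pH 7.5. Scored for every ungapped 8-mer (given with its reverse complement) as E-score (range -0.5 to 0.5; >0.45 counts as bound) and Z-score of median probe intensity. Two replicate arrays (datasets 1 and 2).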
With GAATGTGC, the “PBM E-score of 8-mer” value was determined as 0.228 ± 0.025.
Under ATCATGAA stands -0.173 ± 0.011.
Consider CGCATTAG, for which the “PBM E-score of 8-mer” value was 0.0791 ± 0.035.
For CTTACGAC, the “PBM E-score of 8-mer” value is -0.0779 ± 0.089.
Under AAAGTCAG stands -0.353 ± 0.025; under AAAACAAG, -0.177 ± 0.051.
As for CGTGCGAG, the “PBM E-score of 8-mer” value is 0.373 ± 0.018.
On to GCCCCTAA, for which the “PBM E-score of 8-mer” value was -0.229 ± 0.015.
For AGCACGTA, the “PBM E-score of 8-mer” value came to 0.162 ± 0.023.
With CAGTGTGG, the “PBM E-score of 8-mer” value was found to be 0.243 ± 0.043.
Consider CAAACTGC, for which the “PBM E-score of 8-mer” value stood at 0.0357 ± 0.04.
The value for ACGCGTAC was 0.096 ± 0.088; that for GATACGCC was -0.045 ± 0.046; that for AATTAACT was 0.192 ± 0.035.
Turning to AAGCGTAT, the “PBM E-score of 8-mer” value was -0.14 ± 0.068.
The value for AAGCGCTA was 0.281 ± 0.0036; that for CAGCCTAC was 0.178 ± 0.011; that for CCTCGCCG was 0.0507 ± 0.13.
Under CGCGGGCA stands -0.0187 ± 0.11; under CTCTACGC, -0.0286 ± 0.08.
The value for ACGGGCGC was 0.0718 ± 0.05; that for GCCCGTTA was 0.0948 ± 0.051.
In the case of CCCCCATA, the “PBM E-score of 8-mer” value was -0.229 ± 0.057.
The value for CAAGATGC was -0.0897 ± 0.071.
The value for ATATGCTG was -0.0836 ± 0.089.
Regarding GCAATACA, the “PBM E-score of 8-mer” value is -0.0823 ± 0.031.
For the sequence CAAGTATC, the “PBM E-score of 8-mer” value was -0.125 ± 0.023.
The value for ACATCGCA was 0.161 ± 0.041; that for GCTTCGTA was -0.0788 ± 0.048; that for CATCAGGC was -0.0419 ± 0.0077.
The value for ATAAAATC was 0.0237 ± 0.035; that for ACGAGGTG was 0.419 ± 0.019; that for AGTCACTA was 0.0654 ± 0.081.
Under ACAATGTA stands 0.0148 ± 0.0027; under TCACATAA, 0.131 ± 0.087.
On to GCCCGAGC, for which the “PBM E-score of 8-mer” value was -0.304 ± 0.02.
On to ATCGTTAC, for which the “PBM E-score of 8-mer” value came out at 0.125 ± 0.053.
Under ATAGGTTG stands -0.0363 ± 0.049; under ACCACGCT, -0.0128 ± 0.0025; under GAGAGTAA, 0.0786 ± 0.011.
Under AGTCCATC stands -0.21 ± 0.01; under TATCGGAA, -0.0364 ± 0.00083.
For the sequence GTCGCTTA, the “PBM E-score of 8-mer” value amounted to 0.0366 ± 0.058.
The value for GTGCCCTA was -0.196 ± 0.026; that for AATCCCAG was -0.0532 ± 0.027.
Under CTAGCGAC stands 0.176 ± 0.0026; under CGTCGCGA, 0.277 ± 0.049; under ACCTGGCT, 0.12 ± 0.017.
The value for AACATGAC was 0.0391 ± 0.045.
For GAGTACGA, the “PBM E-score of 8-mer” value is -0.0782 ± 0.02.
Under GCCATGGA stands -0.1949 ± 0.00032.
Under TCGGCTCA stands -0.177 ± 0.074; under GCAGTATA, -0.11 ± 0.1; under CGGGGGCC, -0.095 ± 0.099.
As to CACTCTGC, the “PBM E-score of 8-mer” value is -0.0609 ± 0.049.
The value for AGACTGAT was -0.168 ± 0.062; that for GGTCGGTA was -0.147 ± 0.06; that for CGTCAAGC was 0.116 ± 0.015.
The value for GTCCGTGA was -0.038 ± 0.028; that for AATGTTCA was 0.0154 ± 0.037.
The value for CAAGAAGG was -0.134 ± 0.04.
In the case of GTGGACCA, the “PBM E-score of 8-mer” value is -0.106 ± 0.0052.
As to GATTGCCC, the “PBM E-score of 8-mer” value was -0.111 ± 0.043.
The value for CGTTTGTC was 0.047 ± 0.033; that for CTAACCAC was 0.127 ± 0.014; that for ACTGCTTC was -0.1684 ± 0.001.
Consider AGGACTAG, for which the “PBM E-score of 8-mer” value was -0.386 ± 0.014.
Regarding GATGCACC, the “PBM E-score of 8-mer” value is -0.183 ± 0.032.
With CCGAATGC, the “PBM E-score of 8-mer” value is -0.255 ± 0.015.
Under TCCTAGCA stands -0.015 ± 0.014.
Consider TTCAAGAA, for which the “PBM E-score of 8-mer” value is -0.157 ± 0.032.
In the case of GGTTGTAA, the “PBM E-score of 8-mer” value is -0.0594 ± 0.095.
For CGGGCCGA, the “PBM E-score of 8-mer” value is -0.179 ± 0.042.
The value for GCGGGGAA was 0.0869 ± 0.046; that for CTGCCAAG was 0.105 ± 0.03.
Under AGAAAAAG stands -0.0907 ± 0.043; under GAAGGCCC, -0.115 ± 0.036.
As for CCTTCCCG, the “PBM E-score of 8-mer” value was -0.161 ± 0.12.
Under AGTCAGGA stands -0.151 ± 0.054; under AGGGAAGC, -0.26 ± 0.037.
TCGAGAAA: the “PBM E-score of 8-mer” value is -0.00569 ± 0.14.
The value for ACATAGCA was 0.245 ± 0.0061; that for CTATTTAA was 0.115 ± 0.091.
Under ACTGCTCG stands 0.0799 ± 0.013.
Under TAGGAATA stands -0.38 ± 0.036; under ATCGCGGG, 0.153 ± 0.021.
